Tested on: OsC4H
Assay: qRT-PCR in rice roots, OsC4H (Example 19)
Details: fourteen-day old rice cv. Bomba; treated foliarly twenty-four and three hours prior to harvest with 100 μM

Structure (SMILES): O=C(O)/C=C/c1ccc2c(c1)OCO2 [MDCA, 3,4-methylenedioxycinnamic acid]
- increase of C4H expression in the root system: three-fold

Structure (SMILES): O=C(O)c1ccc2c(c1)OCO2 [PA, Piperonylic acid]
- increase of C4H expression in the root system: ten-fold

From patent publication US11992011B2, “Compounds for controlling plant pathogens” (VIB VZW, priority 2017, dated 2024)
